Experimental data from paper PMC5720685 (Journal of medicinal chemistry, 2017).
Each block holds one compound with its values, some of them ahead of it.

What was measured:
[1] = test system: rat primary glomerular mesangial cells; test: [Ca2+]i measurement in rat primary glomerular mesangial cells; assay type: cell-based
human TRPC3 [2] = target: T1, human TRPC3 (Homo sapiens, UniProt Q13507); test: FMP assay in HEK293 cells stably expressing human TRPC3
T1 sequence (Q13507 1-921): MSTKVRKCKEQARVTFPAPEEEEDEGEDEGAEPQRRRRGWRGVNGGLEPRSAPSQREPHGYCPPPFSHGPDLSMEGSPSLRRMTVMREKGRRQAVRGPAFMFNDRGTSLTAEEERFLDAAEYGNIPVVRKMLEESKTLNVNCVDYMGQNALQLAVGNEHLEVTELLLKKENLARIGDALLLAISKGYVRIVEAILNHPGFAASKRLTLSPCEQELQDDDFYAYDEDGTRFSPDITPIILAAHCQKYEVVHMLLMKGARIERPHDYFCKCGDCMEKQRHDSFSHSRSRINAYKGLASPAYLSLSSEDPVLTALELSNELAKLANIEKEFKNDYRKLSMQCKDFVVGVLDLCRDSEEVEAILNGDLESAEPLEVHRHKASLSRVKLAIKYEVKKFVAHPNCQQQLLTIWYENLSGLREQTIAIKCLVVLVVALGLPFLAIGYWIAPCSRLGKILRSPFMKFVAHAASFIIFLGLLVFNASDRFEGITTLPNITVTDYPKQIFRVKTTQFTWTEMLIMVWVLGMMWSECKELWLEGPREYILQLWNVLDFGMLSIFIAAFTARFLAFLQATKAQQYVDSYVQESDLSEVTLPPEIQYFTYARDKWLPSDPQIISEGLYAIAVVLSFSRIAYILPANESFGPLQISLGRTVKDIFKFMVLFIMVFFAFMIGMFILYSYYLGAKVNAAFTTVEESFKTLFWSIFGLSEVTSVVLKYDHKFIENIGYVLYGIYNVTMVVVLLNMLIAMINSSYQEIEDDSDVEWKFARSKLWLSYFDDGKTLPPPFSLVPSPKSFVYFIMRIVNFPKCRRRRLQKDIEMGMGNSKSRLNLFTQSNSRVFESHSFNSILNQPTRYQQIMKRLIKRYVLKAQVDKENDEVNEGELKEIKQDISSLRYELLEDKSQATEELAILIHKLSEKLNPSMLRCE

human TRPC3 [3] = target: T1, human TRPC3; test: Whole-cell recordings in HEK293 cells expressing human TRPC3; assay type: cell-based; settings: 10 μM; bath 0.5 mM Ca2+
human TRPC3 [4] = target: T1, human TRPC3; test: Fluorescence Ca2+ assay in TRPC3 cells; assay type: cell-based; settings: normal extracellular solution, 2 mM Ca2+
TRPC4β+MOR = target: T2, TRPC4β+MOR (Mus musculus, UniProt Q9QUQ5); test: Fluorescence Ca2+ assay in HEK293 cells coexpressing MOR and TRPC4β
T2 sequence (Q9QUQ5 1-890 isoform Q9QUQ5-2): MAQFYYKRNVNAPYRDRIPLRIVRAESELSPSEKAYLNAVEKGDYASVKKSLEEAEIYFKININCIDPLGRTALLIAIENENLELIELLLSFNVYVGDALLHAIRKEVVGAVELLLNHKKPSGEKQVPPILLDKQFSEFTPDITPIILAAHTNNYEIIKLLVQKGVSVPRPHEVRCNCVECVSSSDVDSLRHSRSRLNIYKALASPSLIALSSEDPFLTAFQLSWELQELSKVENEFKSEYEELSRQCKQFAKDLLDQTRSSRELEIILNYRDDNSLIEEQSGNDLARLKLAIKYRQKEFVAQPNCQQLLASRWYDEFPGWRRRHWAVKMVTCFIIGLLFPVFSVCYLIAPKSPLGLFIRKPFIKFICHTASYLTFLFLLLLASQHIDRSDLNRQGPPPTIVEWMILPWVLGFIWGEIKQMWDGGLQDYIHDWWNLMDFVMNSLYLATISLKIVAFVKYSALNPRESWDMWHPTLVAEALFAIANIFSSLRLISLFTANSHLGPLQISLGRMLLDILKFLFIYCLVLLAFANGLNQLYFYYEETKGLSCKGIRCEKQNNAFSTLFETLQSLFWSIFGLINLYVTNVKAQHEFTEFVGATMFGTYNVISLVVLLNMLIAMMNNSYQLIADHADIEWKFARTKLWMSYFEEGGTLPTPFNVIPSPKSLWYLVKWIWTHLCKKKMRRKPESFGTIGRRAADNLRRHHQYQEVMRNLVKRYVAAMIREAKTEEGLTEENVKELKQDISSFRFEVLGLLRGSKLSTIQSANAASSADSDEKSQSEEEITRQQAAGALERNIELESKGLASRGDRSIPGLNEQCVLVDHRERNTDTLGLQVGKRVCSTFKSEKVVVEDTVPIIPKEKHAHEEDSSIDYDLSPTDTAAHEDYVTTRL

parental HEK293 cells [5] = test: Ca2+ assay in parental HEK293 cells; assay type: cell-based
parental HEK293 cells [6] = test: FMP assay in parental HEK293 cells; assay type: cell-based

SMILES: NCCOB(c1ccccc1)c1ccccc1 [2-APB, 2-aminoethoxydiphenyl borate, reference compound]
effect on 4p-evoked [Ca2+]i increases in rat glomerular mesangial cells ([1]; 30 μM 2-APB, 2 min pretreatment, 4p 1 μM): abolished

increase in potency on TRPC3 as compared to the same compound on TRPC6 (human TRPC3 [2]; TRPC3 versus TRPC6): > 70 fold
increase in potency on TRPC3 as compared to other compounds (human TRPC3 [2]; versus 4m, 4o, 4p): > 7 fold
SMILES: CCOC(=O)N1CCC(c2cc(O)n3nc(C)c(-c4ccc(C(F)(F)F)cc4)c3n2)CC1 [Compound 4n, Ethyl 4-(7-Hydroxy-2-methyl-3-(4-(trifluoromethyl)phenyl)-pyrazolo[1,5-a]pyrimidin-5-yl)piperidine-1-carboxylate]

SMILES: CCOC(=O)N1CCC(c2cc(O)n3nc(C)c(-c4ccc(F)cc4)c3n2)CC1 [Compound 4o, Ethyl 4-(3-(4-Fluorophenyl)-7-hydroxy-2-methylpyrazolo[1,5-a]-pyrimidin-5-yl)piperidine-1-carboxylate]
membrane depolarization in TRPC3 cells (human TRPC3 [2]; normal extracellular solution, 2 mM Ca2+): failed to elicit membrane depolarization
TRPC3 whole-cell currents (human TRPC3 [3]): elicited TRPC3 currents
[Ca2+]i rise in TRPC3 cells (human TRPC3 [4]): failed to elicit
effect on DAMGO-evoked Ca2+ response in MOR/TRPC4β cells (TRPC4β+MOR; DAMGO 1 μM): nor did it alter the DMAGO-evoked response
Ca2+ response in MOR/TRPC4β cells (stimulation) (TRPC4β+MOR; compound alone): did not elicit a Ca^2+ response
[Ca2+]i increase in parental HEK293 cells (parental HEK293 cells [5]): but not compound 4o
membrane depolarization in parental HEK293 cells (parental HEK293 cells [6]): did not induce membrane depolarization

SMILES: Cc1nn2c(O)cc(C3CCN(C(=O)OCc4ccccc4)CC3)nc2c1-c1ccc(F)cc1 [Compound 4p, Benzyl 4-(3-(4-Fluorophenyl)-7-hydroxy-2-methylpyrazolo[1,5-a]pyrimidin-5-yl)piperidine-1-carboxylate]
[Ca2+]i rise in rat glomerular mesangial cells ([1]; 1 μM, Fluo-4 fluorescence): evoked marked increases in [Ca^2+]i
